PubChem BioAssay AID504339 (National Center for Advancing Translational Sciences (NCATS), 2011)
Where “and” joins values, the source holds several entries; their conditions need not be identical. Identical values can stand only once. In all, about 390,000 compounds went through this assay and about 17,000 (4.4%) were called active. Inconclusive results, whose numbers are uncertain, are shown with a selection of clear calls. The call rests on the fitted dose curve; in most records, active means well fitted inhibition curve with a large enough effect; inconclusive means small, poorly fitted or top-dose-only effect; inactive means no such curve, though single readings can be large or run the other way. Potencies beside an inconclusive call are fits to weak or partial responses and may not hold up.
Further: nearly all actives have a fitted effect of over 50% in size.
Potency means the concentration at half of the fitted maximal effect; tags describe the fitted curve by direction and shape.

The compounds below were run against Lysine-specific demethylase 4A (Homo sapiens) (UniProt O75164) (assay: qHTS Assay for Inhibitors of JMJD2A-Tudor Domain). Conditions: AlphaScreen JMJD2A-Tudor / H3K4me3 peptide binding; series mostly up to 114 µM.
UniProt O75164, sequence (O75164 whole entry, looked up, the tested form may be a part): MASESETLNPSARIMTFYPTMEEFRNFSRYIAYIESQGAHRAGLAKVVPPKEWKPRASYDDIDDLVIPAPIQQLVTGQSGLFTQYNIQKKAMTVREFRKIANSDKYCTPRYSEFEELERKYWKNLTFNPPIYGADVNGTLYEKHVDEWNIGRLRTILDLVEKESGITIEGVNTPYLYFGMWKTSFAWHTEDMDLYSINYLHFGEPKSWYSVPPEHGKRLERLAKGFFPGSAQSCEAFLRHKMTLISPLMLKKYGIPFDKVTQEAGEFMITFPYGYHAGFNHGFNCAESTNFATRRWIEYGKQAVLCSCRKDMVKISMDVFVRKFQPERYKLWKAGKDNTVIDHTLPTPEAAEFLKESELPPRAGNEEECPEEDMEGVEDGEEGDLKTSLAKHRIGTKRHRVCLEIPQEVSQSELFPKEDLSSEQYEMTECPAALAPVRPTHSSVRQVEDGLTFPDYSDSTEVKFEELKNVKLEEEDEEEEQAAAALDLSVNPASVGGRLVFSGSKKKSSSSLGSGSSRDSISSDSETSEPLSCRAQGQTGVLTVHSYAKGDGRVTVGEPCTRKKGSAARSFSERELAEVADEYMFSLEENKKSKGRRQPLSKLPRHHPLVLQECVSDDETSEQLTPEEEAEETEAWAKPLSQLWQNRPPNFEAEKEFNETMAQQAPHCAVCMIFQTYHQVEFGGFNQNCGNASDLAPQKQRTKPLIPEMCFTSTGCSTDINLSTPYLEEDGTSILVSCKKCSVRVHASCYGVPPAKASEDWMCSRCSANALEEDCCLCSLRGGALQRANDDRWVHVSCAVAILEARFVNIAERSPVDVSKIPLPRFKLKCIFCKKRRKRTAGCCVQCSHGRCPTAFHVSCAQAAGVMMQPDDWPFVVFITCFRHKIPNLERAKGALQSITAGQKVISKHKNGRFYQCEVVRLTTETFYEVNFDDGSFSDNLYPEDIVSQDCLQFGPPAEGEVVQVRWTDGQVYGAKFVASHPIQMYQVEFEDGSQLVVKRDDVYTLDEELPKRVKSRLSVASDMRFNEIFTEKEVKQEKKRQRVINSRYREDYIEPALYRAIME
In the case of Cc1ccc(Nc2c(-c3ccc(C)o3)nc3cccc(C)n23)cc1, the Potency is reported as active: 50.1 µM and active: 44.7 µM. For O=C(N/N=C/c1cn(-c2cccs2)nc1-c1ccccc1)c1ccc(O)cc1, the Potency was inconclusive: 70.8 µM [inhibitor, single point]. With Cc1ccc2cccc(OC(=O)/C=C\c3ccccc3)c2n1 the Potency was active: 20 µM. In the case of Cc1ccc(-c2n[nH]c(=S)n2/N=C/c2cccs2)cc1, the Potency is reported as active: 28.2 µM. For COc1cccc2c1C1COC3C4CC(C(=O)O)C(C(C2)N13)N4C (centres undefined), the Potency was active: 12.6 µM. With C#CCOCCOCCOCCNc1nc(N2CCN(C(=O)[C@H](CCC(=O)O)n3cc([C@@H](N)[C@H](C)CC)nn3)CC2)nc(N2CCN(C(=O)[C@H](CCC(=O)O)n3cc([C@@H](N)CCSC)nn3)CC2)n1 the Potency was active: 50.1 µM. With COc1ccc(Cn2c(SCc3ccc(C)cc3)nc3cc(OC)c(OC)cc3c2=N)cc1Cl the Potency was inconclusive: 11.2 µM [inhibitor, full curve]. In the case of O=C(Nc1ccnn1C1CCN(Cc2cc(Cl)ccc2O)CC1)c1cccnc1, the Potency is reported as “inactive”. Cn1cc(C(=O)NCCc2ccccc2)c(=O)c2cc(S(=O)(=O)N3CCCCC3)ccc21 was tested, and the Potency was “inactive”. For CSc1ccc(/C=N/NC(=O)c2ccc(C)c(C)c2)cc1, the Potency was inconclusive: 56.2 µM [inhibitor, partial curve]. COc1ccc(/C(C)=N/NC(=O)c2ccncc2)cc1 was tested, and the Potency was “inactive”. With CC(=O)c1ccc(N2CCN(C(=O)COc3ccc4c(c3)CCC4)CC2)cc1 the Potency was inconclusive: 50.1 µM [inhibitor, partial curve]. In the case of O=C(Nc1cccc(Cl)c1)Nc1ccc2nccnc2c1, the Potency is reported as “inactive”. With COc1cccc(CN2CCN(Cc3[nH]c4ccccc4c3C)CC2CCO)c1 (centres undefined) the Potency was inconclusive: 56.2 µM [inhibitor, partial curve, poor fit]. In the case of COCCN(Cc1cc2cc(C)ccc2nc1Cl)C(=O)Nc1ccccc1OC, the Potency is reported as “inactive”. With CCOc1ccc2cc(C3CC(c4ccco4)=NN3S(C)(=O)=O)c(=O)[nH]c2c1 (centres undefined) the Potency was active: 50.1 µM. For CCCNC(=O)C1CCC(CNS(=O)(=O)c2ccc3c(c2)CC(C)N3C(C)=O)CC1 (centres undefined), the Potency was “inactive”. For COCC(C)n1c(C)cc(C(=O)COC(=O)c2ccc3c(c2)NC(=O)CS3)c1C (centres undefined), the Potency was inconclusive: 56.2 µM [inhibitor, partial curve]. O=C(Nc1nncs1)c1cc(-c2ccco2)nc2ccccc12 was tested, and the Potency was inconclusive: 31.6 µM [inhibitor, partial curve]. CC(=O)Nc1ccc(S(=O)(=O)NC2=C(N3CCN(Cc4ccccc4)CC3)C(=O)c3ccccc3C2=O)cc1 was tested, and the Potency was active: 28.2 µM and active: 35.5 µM. CC(NC(=O)C1CCC1)c1ccc2c(c1)OCO2 (centres undefined) was tested, and the Potency was “inactive”. For COC(=O)Cn1c(=O)oc2ccc(C)cc21, the Potency was active: 31.6 µM. With CCN(CC)C(=O)[C@H]1C[C@H](CC(=O)NCCC2=CCCCC2)C(=O)N2CCc3c([nH]c4ccc(Cl)cc34)[C@]12C the Potency was inconclusive: 20 µM [inhibitor, full curve]. With O=C1N=c2ccc(Br)cc2=C1c1sc(=S)n(NS(=O)(=O)c2ccccc2)c1O the Potency was active: 50.1 µM. For CC(C)(C)c1ccc(C(=O)NCCC(=O)Nc2ccc(S(=O)(=O)Nc3nccs3)cc2)cc1, the Potency was inconclusive: 5.01 µM [inhibitor, full curve, poor fit]. For CC(=O)Nc1ccc(S(=O)(=O)N2CCN(S(=O)(=O)c3ccc(NC(C)=O)cc3)CC2)cc1, the Potency was “inactive”. CC(C)CN(C(=O)CN1CCN(c2ccc(O)cc2)CC1)c1c(N)n(CC(C)C)c(=O)[nH]c1=O was tested, and the Potency was inconclusive: 89.1 µM [inhibitor, single point]. Cc1ccc(C(=O)OCC(=O)N(Cc2ccccc2)C(C)C)cc1C was tested, and the Potency was “inactive”. For CC(=O)N1CCc2cc(S(=O)(=O)NC(CC(C)C)C(=O)NCCc3cccc(C)c3)ccc21 (centres undefined), the Potency was “inactive”. In the case of COc1cc(/C=C2\SC(=S)N(CCC(=O)NCCc3ccccc3)C2=O)cc(OC)c1OC, the Potency is reported as “inactive”. For CCc1ccc(NS(=O)(=O)c2cc(OC)ccc2OC)cc1, the Potency was “inactive”. For CCCOc1ccc(NCC(=O)Nc2ccc(C)cc2C)cc1, the Potency was inconclusive: 35.5 µM [inhibitor, full curve, poor fit]. CCOCC(=O)Nc1ccc([N+](=O)[O-])cc1C was tested, and the Potency was inconclusive: 28.2 µM [inhibitor, partial curve]. With O=C(O)CSC(NC(=O)c1cccnc1)(C(F)(F)F)C(F)(F)F the Potency was active: 89.1 µM. With CCOC(=O)c1c(C)[nH]c(C)c1C(=O)CSc1nnc(-c2ccco2)n1Cc1ccccc1 the Potency was “inactive”. With Cc1ccc(/C=N/n2c(-c3cccnc3)n[nH]c2=S)s1 the Potency was active: 4.47 µM. With CCOc1ccc2c(c1)[N+](C)(C)C(C)(C)C=C2C the Potency was active: 17.8 µM. C=CCn1c(Cc2c[nH]c3ccccc23)nnc1SCC(=O)NCc1ccccc1 was tested, and the Potency was “inactive”. For COc1cccc(/C=C/C2=CC(C)(C)NC(=S)N2)c1, the Potency was inconclusive: 56.2 µM [inhibitor, partial curve]. CC(=O)c1cccc(S(=O)(=O)NC2CCCCCC2)c1 was tested, and the Potency was “inactive”. With COc1ccc(/C=C/C(=O)Nc2ccc3nc4c(c(Nc5ccc(OC)c(OC)c5)c3c2)CCCC4)cc1 the Potency was active: 22.4 µM. For COc1ccc(Nc2nc(NCc3ccco3)nc(N3CCOCC3)n2)cc1, the Potency was inconclusive: 79.4 µM [inhibitor, partial curve]. For O=C(Nc1ccnn1C1CCN(Cc2ccccc2)CC1)c1ccccc1Cl, the Potency was inconclusive: 89.1 µM [inhibitor, single point]. In the case of O=C(O)c1ccccc1SC1CC(=O)N(c2cccc3ccccc23)C1=O (centres undefined), the Potency is reported as active: 22.4 µM. With c1ccc(NCCC2OCC3(CO2)COC(CCNc2ccccc2)OC3)cc1 (centres undefined) the Potency was inconclusive: 14.1 µM [inhibitor, full curve]. In the case of O=c1[nH]c2ccc(NCc3ccc(-c4ccc(F)cc4)o3)cc2[nH]1, the Potency is reported as “inactive”. For COCc1cc(=O)[nH]c(/N=C(\N)Nc2ccc(C)cc2)n1, the Potency was inconclusive: 8.91 µM [inhibitor, full curve, poor fit]. COc1ccc(CNC(=O)c2nn(C)c3c2CS(=O)(=O)c2ccccc2-3)cc1 was tested, and the Potency was inconclusive: 56.2 µM [inhibitor, partial curve]. For Cc1ccc(-c2cc(-c3ccccc3[N+](=O)[O-])[nH]n2)c(O)c1, the Potency was inconclusive: 44.7 µM [inhibitor, partial curve]. For Cc1cccc(CC2CC(=O)N(c3ccc([N+](=O)[O-])cc3)C2=O)c1 (centres undefined), the Potency was “inactive”. For O=c1c2cc(N3CCOCC3)ccc2[nH]c(=S)n1Cc1ccccn1, the Potency was active: 28.2 µM. With CN1CCc2c(sc3nc(NN)n(-c4ccc(Cl)cc4)c(=O)c23)C1 the Potency was inconclusive: 56.2 µM [inhibitor, partial curve]. With COc1ccccc1/C=C/C=N/NC(=O)Cc1cccn1C the Potency was inconclusive: 39.8 µM [inhibitor, partial curve]. CCOc1ccc(NCC(=O)N/N=C/C=C/c2ccccc2)cc1 was tested, and the Potency was inconclusive: 39.8 µM [inhibitor, partial curve]. For O=C(NCCc1ccccc1)c1cnc2sc(N3CCCCC3)nn2c1=O, the Potency was “inactive”. For O=C(c1cc2ncc(Br)cn2n1)N1CCN(C(=O)c2ccco2)CC1, the Potency was inconclusive: 89.1 µM [inhibitor, single point]. In the case of COc1ccc(CCNS(=O)(=O)c2ccc(N3CCCCS3(=O)=O)cc2)cc1, the Potency is reported as “inactive”. For NNc1nc2ccc(Cl)cc2s1, the Potency was active: 79.4 µM. S=C(N/N=C/c1ccc2ncccc2c1)Nc1ccccc1 was tested, and the Potency was “inactive”. In the case of COc1ccc(NC(=S)NCCCc2ccccc2)cc1, the Potency is reported as inconclusive: 35.5 µM [inhibitor, full curve, poor fit]. In the case of Cc1cc(C)nc(N2CCC(C(=O)NCc3ccccc3)CC2)n1, the Potency is reported as inconclusive: 89.1 µM [inhibitor, single point]. COc1cc(C(=O)OCC(=O)NCc2ccco2)cc(OC)c1OC was tested, and the Potency was inconclusive: 50.1 µM [inhibitor, partial curve]. With Oc1ccc(CNc2ccccc2)c2cccnc12 the Potency was active: 79.4 µM. CCOC(=O)CSc1nnc(N)s1 was tested, and the Potency was active: 56.2 µM. In the case of CC(=O)Nc1ccc(C(=O)Nc2ccc3c(c2)N(C2CCCC2)C(=O)c2ccccc2S3)cc1, the Potency is reported as inconclusive: 79.4 µM [inhibitor, partial curve]. In the case of CC(=O)NC(=S)Nc1ccc(NC(=S)NC(=O)/C=C/c2ccco2)cc1, the Potency is reported as inconclusive: 56.2 µM [inhibitor, partial curve, poor fit]. CC1CCc2nc(NC(=O)CN3CCN(Cc4ccc5c(c4)OCO5)CC3)sc2C1 (centres undefined) was tested, and the Potency was inconclusive: 31.6 µM [inhibitor, full curve]. Cc1ccc(C(=O)NC(=S)N2CCN(C)CC2)cc1Br was tested, and the Potency was “inactive”. In the case of Cc1nn(CC(=O)OCC(=O)Nc2c(C(C)C)cccc2C(C)C)c(C)c1[N+](=O)[O-], the Potency is reported as inconclusive: 89.1 µM [inhibitor, single point]. COc1ccc(C(=O)Nc2ccc(OC)c(OC)c2)cc1 was tested, and the Potency was “inactive”. For Clc1ccccc1CN1CCc2nc(N3CCN(c4ncccn4)CC3)ncc2C1, the Potency was active: 35.5 µM. For O=C(O)/C=C/C(=O)NCCc1ccccc1, the Potency was inconclusive: 35.5 µM [inhibitor, single point]. In the case of CCCCCC(=O)Nc1nc(C)c(-c2csc(Nc3ccccc3OC)n2)s1, the Potency is reported as inconclusive: 79.4 µM [inhibitor, partial curve]. O=c1[nH][nH]c(=O)c2c1[nH]c(=S)n2Cc1ccccc1 was tested, and the Potency was inconclusive: 3.55 µM [inhibitor, full curve, poor fit].
